Laboratory results: PubChem BioAssay AID493208 (National Center for Advancing Translational Sciences (NCATS), 2011)
About 340 (0.77%) of roughly 44,000 compounds were called active. Roughly 5% stayed inconclusive and do not appear here. The call rests on the fitted dose curve; in most records, active means well fitted inhibition curve with a large enough effect; inconclusive means small, poorly fitted or top-dose-only effect; inactive means flat fitted curve, though single readings scatter. The list shows a part of the results.

Test: Acumen qHTS Assay for Inhibitors of the mTORC1 Signaling Pathway in MEF (Tsc2-/-, p53-/-) Cells: Sytravon;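 further: plate controls were DMSO for no effect and rapamycin for full effect; nearly all actives have a fitted effect of over 50% in size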
Conditions: phospho-rpS6 immunofluorescence/PI, 24 h; series mostly up to 38.3 µM; activity change, negative = inhibition: at the top concentration
Outline: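 Tsc2-/-, p53-/- mouse embryonic fibroblasts (empty-vector line) exposed to compound 24 hrs at 37 C, fixed, immunostained for phospho-rpS6 and counterstained with propidium iodide. Acumen laser scanning gives % positive cells from Alexa 488/PI ratio, thresholded using 7.5 nM rapamycin; PI count gives viability.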

Activity change, negative = inhibition, inactive:
COc1ccc(NC(=O)c2ccc3nc(CCc4ccccc4)oc3c2)cc1 2.89%
CC(=O)c1cc(-c2ccc(F)cc2)n(CCC(=O)NCc2ccccc2C)c1C -3.73%
CS(=O)(=O)c1ccc2nc(NC(=O)CS(=O)(=O)c3ccc(Cl)cc3)sc2c1 0.0121%
COc1ccccc1NC(=O)C1CCCN(c2nnc(C)c3c(C)n(-c4ccccc4)nc23)C1 (configuration not stated) -2.04%
Cc1ccc(N2CCN(c3nc4ccc(C)cc4n4nnnc34)CC2)c(C)c1 0.202%
Cc1ccc(NC2=C(c3ccc(C(F)(F)F)cc3)C(=O)c3ccccc32)cc1F -7.53%
CCOc1ccccc1NC(=O)CSc1nc2ccccc2c2nc(CCn3cncc3C)nn12 -0.95%
O=C(NCC(c1cccnc1)N1CCc2ccccc21)c1ccccc1Br (configuration not stated) 6.77%
CCCN(CCC)C(=O)Cn1c(=O)n(-c2cccc(C(F)(F)F)c2)c(=O)c2c(C)c(C)sc21 -6.12%
O=C(Cn1c(=O)n(Cc2ccco2)c(=O)c2cccnc21)Nc1ccccc1F -1.34%
CCOc1cc(C(=O)Nc2ccc(-c3nc4cc(C)ccc4o3)cc2)cc(OCC)c1OCC -5.97%
O=C(Nc1ccc2nc(SCC(=O)N3CCCC3)sc2c1)c1ccccc1 -2.34%
COc1cc2c(-c3ccccc3C)nc3c(c(C)nn3-c3ccccc3)c2cc1OC 16.5%
Cc1ccc(OCC(=O)Nc2c(C(=O)c3ccccc3)oc3ccccc23)cc1C 4.55%
CCc1ccc(NC(=O)CC2C(=O)N(c3cccc(C)c3)C(=O)N2Cc2cccs2)cc1 (configuration not stated) -1.08%
COc1ccc(CNC(=O)Cn2c(SCC(=O)N(C)c3ccccc3)nc3ccccc32)cc1 0%
CCCCn1c(=O)n(-c2ccc(Br)cc2F)c(=O)c2c3c(sc21)CN(C(C)=O)CC3 -0.761%
CCOC(=O)c1noc2nc(C)n(CC(=O)Nc3cc(Cl)ccc3OC)c(=O)c12 -8.24%
COc1cc(C(=O)Nc2ccc3nn(-c4ccc(F)cc4)nc3c2)cc(OC)c1OC 9.21%
Cc1csc2nc(COC(=O)c3ccc(NC(=O)COc4ccccc4F)cc3)cc(=O)n12 1.4%
CC1=C(C(=O)OCC2CCCCC2)C(c2ccc(F)cc2F)CC(=O)N1 (configuration not stated) -26.6%
COc1ccccc1CNC(=O)C(=O)NCC(c1cccs1)S(=O)(=O)c1ccc(F)cc1 (configuration not stated) -4.09%
Oc1c(C(c2ccccc2)N2CCN(Cc3ccccc3)CC2)sc2nc(-c3ccco3)nn12 (configuration not stated) -6.93%
Cc1ccc(CNC(=O)C2CCN(S(=O)(=O)N3CCC(C)CC3)CC2)cc1 12.9%
CC(=O)Nc1nnc(SCc2cc(=O)c3cc(C)ccc3[nH]2)s1 -18.7%
CC1=C(C(=O)Nc2ccccc2)C(c2ccccc2)n2nc(-c3ccco3)nc2N1 (configuration not stated) 5.67%
COc1ccc(NC(=O)Cn2c(SCc3cccc(Cl)c3)nc3ccncc32)c(OC)c1OC 3.8%
Cc1ccc(NCc2cccn2-c2nnc(N3CCCCCC3)s2)cc1 -3.91%
CCOc1ccccc1NC(=O)C(C)Sc1cc(-c2ccccc2)nc(C)n1 (configuration not stated) -9.22%
CCOc1ccccc1NC(=O)CCn1c(-c2ccc(OC)cc2)cc(C(C)=O)c1C -0.118%
CCCCNC(=O)C1CCN(S(=O)(=O)c2cc(Br)cc3c2N(C(=O)CC)CC3)CC1 1.78%
Cn1c(=O)cc(SCC(=O)NCc2ccc(F)cc2)c2ccc(Cl)cc21 -15.5%
COC(=O)c1cc(-c2ccc(C)cc2)c2c(=O)n(C)c(=O)n(C)c2n1 1.3%
OCCN(CCO)c1ncnc2c1cnn2-c1ccc(F)cc1 -20.5%
COc1ccccc1C(=O)Oc1ccc(C(c2c(C)[nH][nH]c2=O)c2c(C)[nH][nH]c2=O)cc1 -1.77%
COc1cccc(CNC(=O)c2cc(S(=O)(=O)N3CCCCC3)c[nH]2)c1 -1.65%
COc1ccc(CC(=O)Nc2ccc(-c3nc4ccccc4s3)c(C)c2)cc1OC -1.17%
COc1ccc2oc(=O)c(C(=O)N3CCN(c4ccc(C)cc4)CC3)cc2c1 3.8%
COc1ccc(-c2cc(C(F)(F)F)nc(NCCc3ccccc3)n2)cc1OC 3.18%
Cc1csc2nc(COC(=O)c3ccccc3NC(=O)c3ccc(C(C)(C)C)cc3)cc(=O)n12 5.25%
O=C(CCCn1c(=O)c2cccn2c2ccccc21)NCCc1ccc(Cl)cc1 8.45%
CSc1nn(Cc2ccc(C)cc2)c(N)c1S(=O)(=O)c1ccccc1 -19.9%
COc1ccc(-c2cc(C(=O)Nc3c(C)n(C)n(-c4ccccc4)c3=O)no2)cc1OC 3.91%
Cc1c(CC(=O)NCc2ccc(F)cc2)c(=O)oc2cc(O)c(Cl)cc12 -5.09%
COc1ccc(NC(=O)CC2NCCNC2=O)c(OC)c1 (configuration not stated) -0.155%
CCOc1cccc2sc(N(Cc3cccnc3)C(=O)c3ccc(C#N)cc3)nc12 -9.71%
CCOC(=O)c1c(NC(=O)C2c3ccccc3Oc3ccccc32)sc(C)c1C -13.5%
Cc1cc(C)n(-c2nc3ccccc3nc2N2CCN(c3cccc(C(F)(F)F)c3)CC2)n1 -22.8%
O=C(NCc1ccccc1Cl)c1ccc2oc(=O)n(Cc3ccccc3)c2c1 12.4%
Cc1cccc(-n2nc(C)c(C(=O)Nc3cc(C)ccc3C)c2-n2cccc2)c1 0.319%
Cc1ccc(-n2c(SCc3ccccc3)nc3c([nH]c4ccccc43)c2=O)cc1 0.0818%
COc1ccc(CNC(=O)c2ccc3nc(-c4ccc(F)cc4)c(-c4ccc(F)cc4)nc3c2)cc1 3.8%
Cc1nnc(NC(=O)c2ccccc2)s1 -0.123%
CCC1(C)Cc2c(sc3nc(SC)n(-c4ccc(C)cc4)c(=O)c23)CO1 (configuration not stated) 1.31%
O=C(Nc1ccc(-c2nc3cc(Cl)ccc3o2)cc1)c1cc2ccccc2o1 -2.61%
Cc1cc(NC(=O)CCNS(=O)(=O)c2cccc3nsnc23)ccc1Br 0%
Cc1ccc(NC(=O)c2ccccc2Br)c(C(=O)c2ccccc2)c1 0.461%
CC1CCN(c2nc3ccc(C(=O)NCc4ccccc4)cc3s2)CC1 -1.63%
COc1ccc(Cn2c(SCc3ccc(C(=O)NC(C)c4ccccc4)cc3)nc3cccnc32)cc1 (configuration not stated) -3.55%
COc1cc(NC(=O)CCCOc2cc(=O)n(C)c3ccccc23)cc(OC)c1OC 2.58%
CCOC(=O)CNC(=O)N1CCN(c2nnc(C)c3c(C)n(-c4ccc(Cl)cc4)nc23)CC1 3.59%
COc1ccc(OC)c(NC(=O)Cn2c(=O)cc(-c3ccccc3)c3c(C)nn(C)c32)c1 -5.02%
